Assay [1] deals with RAW-Dual. Kind of assay: IRF Lucia reporter activity, fold change vs agonist alone; cytotoxicity flag (confluency mask): not cytotoxic; higher = enhanced IRF activity. The method in brief:
(§1)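 RAW-Dual macrophages were seeded in DMEM at 50,000 cells/well in 384-well plates, given 50 nL of library stock by pin tool, and given a PRR agonist 1 h later. Plates were held at 37 °C, 5% CO2 for 20 hours, after which supernatant was read for IRF by QuantiLuc luminescence and for NF-κB by QuantiBlue absorbance at 620 nm. Reporter activity is expressed as fold change over wells that received agonist alone. A well was called cytotoxic when IncuCyte confluency fell below 70% of agonist controls in both mask sets.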

In assay [2] the test system is RAW-Dual. Kind of assay: IRF Lucia reporter activity, fold change vs agonist alone; higher = enhanced IRF activity. The following applies: library stock concentration (final ~1000-fold dilution): 10 mM, agonist: MPLA (TLR4) […]. The method in brief:
as §1

Assay [3] relates to RAW-Dual. Kind of assay: IRF Lucia reporter activity, fold change vs agonist alone; cytotoxicity flag (confluency mask): cytotoxic (confluency <70% of control); higher = enhanced IRF activity. The method, boiled down:
as §1

Setting [4] is: agonist: 3'3'-cGAMP (STING) 10 ug/mL.
Setting [5] is: cytotoxicity flag (confluency mask): cytotoxic (confluency <70% of control).
Where [6] appears, read: cytotoxicity flag (confluency mask): not cytotoxic.

Molecules are shown by their SMILES. In all, about 2,900 compounds were measured (“IRF Lucia reporter activity, fold change vs agonist alone”: median about 0.9, highest 2% from about 2.8 on). This is one part of the list.

For the compound `CN1C(C(=O)Nc2ccccn2)=C(O)c2ccccc2S1(=O)=O` (library stock concentration (final ~1000-fold dilution): 10 mM), the figures for the “IRF Lucia reporter activity” value in the assay on RAW-Dual [1] (setting [4]) and in the assay with RAW-Dual [1] (agonist: LPS (TLR4) 0.1 ug/mL) were 0.98 and 0.878, respectively. `COc1c(C)c2c(c(O)c1C/C=C(\C)CCC(=O)OCCN1CCOCC1)C(=O)OC2`: the “IRF Lucia reporter activity” value with RAW-Dual [2] (setting [5]) was 0.79. Take `COc1c(C)c2c(c(O)c1C/C=C(\C)CCC(=O)OCCN1CCOCC1)C(=O)OC2` (library stock concentration (final ~1000-fold dilution): 10 mM): the “IRF Lucia reporter activity” value worked out at 0.449 in the assay on RAW-Dual [3] (setting [4]) and 0.922 with RAW-Dual [3] (agonist: LPS (TLR4) 0.1 ug/mL). Turning to `O=c1oc2cc(O)ccc2c2ccccc12` (library stock concentration (final ~1000-fold dilution): 10 mM), the “IRF Lucia reporter activity” value turned out to be 0.337 with RAW-Dual [1] (setting [4]) and 0.758 in the assay on RAW-Dual [1] (agonist: LPS (TLR4) 0.1 ug/mL). Turning to `CC(Oc1ccc(S(C)(=O)=O)cc1C(=O)N1CCN(c2ncc(C(F)(F)F)cc2F)CC1)C(F)(F)F` (stereo not given) (library stock concentration (final ~1000-fold dilution): 10 mM), the figures for the “IRF Lucia reporter activity” value in the assay on RAW-Dual [1] (setting [4]) and in the assay with RAW-Dual [1] (agonist: LPS (TLR4) 0.1 ug/mL) were 0.991 and 1.1, respectively. Regarding `NCCS` (library stock concentration (final ~1000-fold dilution): 10 mM), the “IRF Lucia reporter activity” value in the assay with RAW-Dual [1] (setting [4]) amounted to 0.552; in the assay with RAW-Dual [1] (agonist: LPS (TLR4) 0.1 ug/mL), 1.21. For the compound `Cc1nc(NC(=O)N2CCCC2C(N)=O)sc1-c1csc(C(C)(C)C)n1` (stereo not given), in the assay on RAW-Dual [2] (setting [6]), the “IRF Lucia reporter activity” value is 1.26. Regarding `Cc1nc(NC(=O)N2CCCC2C(N)=O)sc1-c1csc(C(C)(C)C)n1` (stereo not given) (library stock concentration (final ~1000-fold dilution): 10 mM), the “IRF Lucia reporter activity” value in the assay on RAW-Dual [1] (setting [4]) is 0.482; in the assay on RAW-Dual [1] (agonist: LPS (TLR4) 0.1 ug/mL), 1.2.

`CC(=O)Oc1cc2c(s1)CCN(C(C(=O)C1CC1)c1ccccc1F)C2.Cl` (stereo not given): the “IRF Lucia reporter activity” value in the assay with RAW-Dual [2] (setting [6]) was 0.833. Turning to `CC(=O)Oc1cc2c(s1)CCN(C(C(=O)C1CC1)c1ccccc1F)C2.Cl` (stereo not given) (library stock concentration (final ~1000-fold dilution): 10 mM), the “IRF Lucia reporter activity” value in the assay on RAW-Dual [1] (setting [4]) was 0.923; in the assay with RAW-Dual [1] (agonist: LPS (TLR4) 0.1 ug/mL) it was 1.05. In the case of `COc1c(OC2OC(CO)C(O)C(O)C2O)cc2c(c1OC)-c1ccc(SC)c(=O)cc1C(NC(C)=O)CC2` (stereo not given), in the assay on RAW-Dual [2] (setting [6]), the “IRF Lucia reporter activity” value was 1. `COc1c(OC2OC(CO)C(O)C(O)C2O)cc2c(c1OC)-c1ccc(SC)c(=O)cc1C(NC(C)=O)CC2` (stereo not given) (library stock concentration (final ~1000-fold dilution): 10 mM): the “IRF Lucia reporter activity” value was found to be 1.02 in the assay with RAW-Dual [1] (setting [4]) and 1.38 in the assay with RAW-Dual [1] (agonist: LPS (TLR4) 0.1 ug/mL).

Take `O=C(O)c1ccc(-n2nc(-c3ccccc3O)nc2-c2ccccc2O)cc1` (library stock concentration (final ~1000-fold dilution): 10 mM): the “IRF Lucia reporter activity” value stood at 1.02 in the assay with RAW-Dual [1] (setting [4]) and 1.11 in the assay on RAW-Dual [1] (agonist: LPS (TLR4) 0.1 ug/mL). For the compound `O=C(O)c1ccc(-n2nc(-c3ccccc3O)nc2-c2ccccc2O)cc1`, in the assay with RAW-Dual [2] (setting [6]), the “IRF Lucia reporter activity” value came to 1.08. Still for that read-out and setting: for `CC(Oc1cc(-n2cnc3ccc(CN4CCN(C)CC4)cc32)sc1C(N)=O)c1ccccc1C(F)(F)F` (stereo not given) the value was 1.11. Take `CC(Oc1cc(-n2cnc3ccc(CN4CCN(C)CC4)cc32)sc1C(N)=O)c1ccccc1C(F)(F)F` (stereo not given) (library stock concentration (final ~1000-fold dilution): 10 mM): the “IRF Lucia reporter activity” value amounted to 1.07 with RAW-Dual [1] (setting [4]) and 1.6 with RAW-Dual [1] (agonist: LPS (TLR4) 0.1 ug/mL). Regarding `Cc1ccc(NCCN(C)CCNc2ccnc3cc(Cl)ccc23)c2c(=O)c3ccccc3sc12` (library stock concentration (final ~1000-fold dilution): 2 mM), the “IRF Lucia reporter activity” value in the assay with RAW-Dual [1] (setting [4]) was 0.792; in the assay on RAW-Dual [1] (agonist: LPS (TLR4) 0.1 ug/mL), 1.02. Turning to `CCC(C)(C)C(=O)OC1CC(C)C=C2C=CC(C)C(CCC3CC(O)CC(=O)O3)C21` (stereo not given), the “IRF Lucia reporter activity” value with RAW-Dual [2] (setting [5]) was 0.487.

Regarding `CCC(C)(C)C(=O)OC1CC(C)C=C2C=CC(C)C(CCC3CC(O)CC(=O)O3)C21` (stereo not given) (library stock concentration (final ~1000-fold dilution): 10 mM), the “IRF Lucia reporter activity” value stood at 0.54 in the assay with RAW-Dual [3] (setting [4]) and 0.635 with RAW-Dual [3] (agonist: LPS (TLR4) 0.1 ug/mL). Consider `CN1CCN(Cc2ccc(NC(=O)Nc3ccc(Oc4cc(NC(=O)C5CC5)ncn4)cc3)cc2C(F)(F)F)CC1`, for which the “IRF Lucia reporter activity” value in the assay with RAW-Dual [2] (setting [5]) is 0.606. Consider `CN1CCN(Cc2ccc(NC(=O)Nc3ccc(Oc4cc(NC(=O)C5CC5)ncn4)cc3)cc2C(F)(F)F)CC1` (library stock concentration (final ~1000-fold dilution): 10 mM), for which the “IRF Lucia reporter activity” value turned out to be 0.00991 with RAW-Dual [3] (setting [4]) and 0.00845 with RAW-Dual [3] (agonist: LPS (TLR4) 0.1 ug/mL). With `COCC1CC(c2ncc(-c3ccc4c(c3)COc3cc5c(ccc6[nH]c(C7CCC(C)N7C(=O)C(NC(=O)OC)C(C)C)nc65)cc3-4)[nH]2)N(C(=O)C(NC(=O)OC)c2ccccc2)C1` (stereo not given), the “IRF Lucia reporter activity” value in the assay on RAW-Dual [2] (setting [6]) is 0.857. As for `COCC1CC(c2ncc(-c3ccc4c(c3)COc3cc5c(ccc6[nH]c(C7CCC(C)N7C(=O)C(NC(=O)OC)C(C)C)nc65)cc3-4)[nH]2)N(C(=O)C(NC(=O)OC)c2ccccc2)C1` (stereo not given) (library stock concentration (final ~1000-fold dilution): 10 mM), the entries for the “IRF Lucia reporter activity” value in the assay on RAW-Dual [1] (setting [4]) and with RAW-Dual [1] (agonist: LPS (TLR4) 0.1 ug/mL) were 0.767 and 0.91, respectively. For `COCCOc1nc(N)c2[nH]c(=O)n(Cc3ccc(C(=O)O)cc3)c2n1` (library stock concentration (final ~1000-fold dilution): 10 mM) the same measures were 1.54 and 1.06. Taken in the same sequence, the figures for `NC(=O)c1cccc2nc(-c3ccc(C4CCCN4)cc3F)[nH]c12` (stereo not given) (library stock concentration (final ~1000-fold dilution): 10 mM) were 0.665 and 0.339. Consider `NC(=O)c1cccc2nc(-c3ccc(C4CCCN4)cc3F)[nH]c12` (stereo not given), for which the “IRF Lucia reporter activity” value in the assay on RAW-Dual [2] (setting [6]) is 0.47.

As to `O=C(O)C1OC(Oc2cc3oc(-c4ccccc4)cc(=O)c3c(O)c2O)C(O)C(O)C1O` (stereo not given), the “IRF Lucia reporter activity” value in the assay with RAW-Dual [2] (setting [6]) turned out to be 1.03.

On to `O=C(O)C1OC(Oc2cc3oc(-c4ccccc4)cc(=O)c3c(O)c2O)C(O)C(O)C1O` (stereo not given) (library stock concentration (final ~1000-fold dilution): 10 mM), for which the “IRF Lucia reporter activity” value in the assay with RAW-Dual [1] (setting [4]) was determined as 0.96; in the assay on RAW-Dual [1] (agonist: LPS (TLR4) 0.1 ug/mL), 0.958.

The record behind these values is the supplement of paper PMC10037445.
